The list shows a part of the results.
Columns and labels:
Assay in all cases: glycan array binding signal (z-score within array); higher = stronger binding
Conditions in all cases: glycan notation: IUPAC condensed, linker removed
[1] = target: Neu5Ac(a2-6)GlcNAc(b1-4)GlcNAc
In short: (§1)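 The Consortium for Functional Glycomics database supplied 3228 glycan arrays, of which those lacking an available protein sequence were dropped. The binding signal, a within-array Z-score, was averaged across arrays of the same protein sequence and across linkers. Negative scores can be read as non-binding.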

[2] = target: Neu5Ac(a2-6)GlcNAc(b1-4)GlcNAc(b1-4)GlcNAc
In short: as §1

Neu5Ac(a2-8)Neu5Ac = target: Neu5Ac(a2-8)Neu5Ac
In short: as §1

[3] = target: Neu5Ac(a2-8)Neu5Ac(a2-3)Gal(b1-3)GalNAc(b1-4)[Neu5Ac(a2-3)]Gal(b1-4)Glc
In short: as §1

[4] = target: Neu5Ac(a2-8)Neu5Ac(a2-3)Gal(b1-3)GalNAc(b1-4)[Neu5Ac(a2-8)Neu5Ac(a2-3)]Gal(b1-4)Glc
In short: as §1

[5] = target: Neu5Ac(a2-8)Neu5Ac(a2-3)Gal(b1-4)Glc
In short: as §1

[6] = target: Neu5Ac(a2-8)Neu5Ac(a2-3)Gal(b1-4)GlcNAc
In short: as §1

[7] = target: Neu5Ac(a2-8)Neu5Ac(a2-3)[Gal(b1-3)GalNAc(b1-4)]Gal(b1-4)Glc
In short: as §1

[8] = target: Neu5Ac(a2-8)Neu5Ac(a2-3)[GalNAc(b1-4)]Gal(b1-4)Glc
In short: as §1

[9] = target: Neu5Ac(a2-8)Neu5Ac(a2-8)Neu5Ac
In short: as §1

[10] = target: Neu5Ac(a2-8)Neu5Ac(a2-8)Neu5Ac(a2-3)Gal(b1-4)Glc
In short: as §1

[11] = target: Neu5Ac(a2-8)Neu5Ac(a2-8)Neu5Ac(a2-3)[Gal(b1-3)GalNAc(b1-4)]Gal(b1-4)Glc
In short: as §1

[12] = target: Neu5Ac(a2-8)Neu5Ac(a2-8)Neu5Ac(a2-3)[GalNAc(b1-4)]Gal(b1-4)Glc
In short: as §1

[13] = target: Neu5Ac(a2-8)Neu5Ac(a2-8)Neu5Ac(a2-8)Neu5Ac(a2-3)[GalNAc(b1-4)]Gal(b1-4)Glc
In short: as §1

[14] = target: Neu5Ac(a2-8)Neu5Gc(a2-3)Gal(b1-4)GlcNAc
In short: as §1

[15] = target: Neu5Ac(b2-6)Gal(b1-4)GlcNAc
In short: as §1

Neu5Ac(b2-6)GalNAc = target: Neu5Ac(b2-6)GalNAc
In short: as §1

[16] = target: Neu5Ac9Ac(a2-3)Gal(b1-3)GlcNAc
In short: as §1

[17] = target: Neu5Ac9Ac(a2-3)Gal(b1-4)GlcNAc
In short: as §1

[18] = target: Neu5Ac9Ac(a2-6)Gal(b1-4)GlcNAc
In short: as §1

[19] = target: Neu5Gc(a2-3)Gal(b1-3)GlcNAc
In short: as §1

[20] = target: Neu5Gc(a2-3)Gal(b1-3)[Fuc(a1-4)]GlcNAc
In short: as §1

Neu5Gc(a2-3)Gal(b1-4)Glc = target: Neu5Gc(a2-3)Gal(b1-4)Glc
In short: as §1

[21] = target: Neu5Gc(a2-3)Gal(b1-4)GlcNAc
In short: as §1

[22] = target: Neu5Gc(a2-3)Gal(b1-4)GlcNAc(b1-3)Gal(b1-4)GlcNAc(b1-2)Man(a1-3)[Neu5Gc(a2-3)Gal(b1-4)GlcNAc(b1-3)Gal(b1-4)GlcNAc(b1-2)Man(a1-6)]Man(b1-4)GlcNAc(b1-4)GlcNAc
In short: as §1

[23] = target: Neu5Gc(a2-3)Gal(b1-4)[Fuc(a1-3)]GlcNAc
In short: as §1

[24] = target: Neu5Gc(a2-6)Gal(b1-4)GlcNAc
In short: as §1

Neu5Gc(a2-6)GalNAc = target: Neu5Gc(a2-6)GalNAc
In short: as §1

[25] = target: Neu5Gc(a2-8)Neu5Ac(a2-3)Gal(b1-4)GlcNAc
In short: as §1

[26] = target: Neu5Gc(a2-8)Neu5Gc(a2-3)Gal(b1-4)GlcNAc
In short: as §1

[27] = target: Neu5Gc(a2-8)Neu5Gc(a2-3)Gal(b1-4)GlcNAc(b1-3)Gal(b1-4)GlcNAc
In short: as §1

[28] = target: Neu5Gc(a2-8)Neu5Gc(a2-6)Gal(b1-4)GlcNAc
In short: as §1

[29] = target: Neu5Gc(b2-6)Gal(b1-4)GlcNAc
In short: as §1

B1: MGL (Homo sapiens), Q8IUN9 (protein)
chain: MTRTYENFQYLENKVKVQGFKNGPLPLQSLLQRLCSGPCHLLLSLGLGLLLLVIICVVGFQNSKFQRDLVTLRTDFSNFTSNTVAEIQALTSQGSSLEETIASLKAEVEGFKQERQAGVSELQEHTTQKAHLGHCPHCPSVCVPVHSEMLLRVQQLVQDLKKLTCQVATLNNNASTEGTCCPVNWVEHQDSCYWFSHSGMSWAEAEKYCQLKNAHLVVINSREEQNFVQKYLGSAYTWMGLSDPEGAWKWVDGTDYATGFQNWKPGQPDDWQGHGLGGGEDCAHFHPDGRWNDDVCQRPYHWVCEAGLGQTSQESH
Which results are given for B1?
glycan array binding signal (z-score) [1]: -0.241; glycan array binding signal (z-score) [2]: -0.247; glycan array binding signal (z-score) (Neu5Ac(a2-8)Neu5Ac): -0.238; glycan array binding signal (z-score) [3]: -0.236; glycan array binding signal (z-score) [4]: -0.243; glycan array binding signal (z-score) [5]: -0.25; glycan array binding signal (z-score) [6]: -0.259; glycan array binding signal (z-score) [7]: 0.408; glycan array binding signal (z-score) [8]: 2.36; glycan array binding signal (z-score) [9]: -0.244; glycan array binding signal (z-score) [10]: -0.246; glycan array binding signal (z-score) [11]: -0.237; glycan array binding signal (z-score) [12]: 2.59; glycan array binding signal (z-score) [13]: 3.54; glycan array binding signal (z-score) [14]: -0.248; glycan array binding signal (z-score) [15]: -0.244; glycan array binding signal (z-score) (Neu5Ac(b2-6)GalNAc): -0.159; glycan array binding signal (z-score) [16]: -0.248; glycan array binding signal (z-score) [17]: -0.252; glycan array binding signal (z-score) [18]: -0.239; glycan array binding signal (z-score) [19]: -0.248; glycan array binding signal (z-score) [20]: -0.244; glycan array binding signal (z-score) (Neu5Gc(a2-3)Gal(b1-4)Glc): -0.238; glycan array binding signal (z-score) [21]: -0.249; glycan array binding signal (z-score) [22]: -0.241; glycan array binding signal (z-score) [23]: 0.195; glycan array binding signal (z-score) [24]: -0.242; glycan array binding signal (z-score) (Neu5Gc(a2-6)GalNAc): 0.748; glycan array binding signal (z-score) [25]: -0.237; glycan array binding signal (z-score) [26]: -0.24; glycan array binding signal (z-score) [27]: -0.245; glycan array binding signal (z-score) [28]: -0.246; glycan array binding signal (z-score) [29]: -0.235

Reference: the supplement of paper PMC8728848
